The source gives no read counts; variants with many changes may rest on few reads.

B1: LINE1-mini (parent)
chain: GGCAGAGCUCAACACAGCGUGGCAAAGUGGCUGUGGCUAGACUGCC

Variants of B1 are the subject of the data set. The data set can be described thus: self-cleavage, relative activity (ratio to wild type); higher = more cleavage; in vitro, sequencing; the parent is a self-cleaving ribozyme.
C13U G17U C31U: the self-cleavage turned out to be 0.01.

As to C13G C15U U34C, the self-cleavage was 0.33.

In the case of C13G G22U A25G, the self-cleavage is 0.04.

Turning to C13U G17A G33U A39U C46G, the self-cleavage came out at 0.03.

In the case of C13G G21C G30U C42G, the self-cleavage is 0.03.

Consider C13U A14G C15G A16U C31U G36C C42A, for which the self-cleavage turned out to be 0.02.

C13U G19A C42U: the self-cleavage was determined as 0.14.

C13G A16G G17A U34C C45A: the self-cleavage came to 0.

On to C13G C18G G22U A26G U43A, for which the self-cleavage is 0.02.

C13U A24U G40A G44U: the self-cleavage is 0.01.

C13G U20A A26C A39C: the self-cleavage worked out at 0.06.

Consider C13G C37G U38G, for which the self-cleavage is 0.02.

For the variant C13U C18U G21C, the self-cleavage was determined as 0.01.

Consider C13G C18A G36A C42U, for which the self-cleavage worked out at 0.02.

For C13G G19C G22U, the self-cleavage was 0.18.

As to C13G G17U A41U G44A, the self-cleavage was found to be 0.08.

C13U C37A U43C: the self-cleavage came out at 0.17.

On to C13G A39G U43A G44A, for which the self-cleavage was determined as 0.02.

In the case of C13G G19U G21U, the self-cleavage stood at 0.03.

In the case of C13U G19U U32G U38G, the self-cleavage was 0.03.

With C13U G19U A25U C37U, the self-cleavage was 0.13.

Consider C13G U43A G44C, for which the self-cleavage amounted to 0.14.

In the case of C13G C18U G22C, the self-cleavage is 0.02.

Consider C13U C18G G40A, for which the self-cleavage was 0.06.

C13G C18A G19C U20G C23A U32C C37G: the self-cleavage turned out to be 0.02.

For the variant C13U G19U U20C G21A G30U, the self-cleavage was found to be 0.05.

As for C13G C15U A26C U32C U43A, the self-cleavage came to 0.02.

Turning to C13G U28C G40C, the self-cleavage came to 0.03.

Take C13G U43G C46U: the self-cleavage turned out to be 0.04.

On to C13G A26C A41U, for which the self-cleavage turned out to be 0.22.

As for C13G A14U C31G U34A G40U, the self-cleavage is 0.08.

For C13U G19U U32A U34G, the self-cleavage was 0.03.

Take C13U G21A C23U G35U: the self-cleavage was determined as 0.09.

As for C13U C18A G27U, the self-cleavage is 0.

Consider C13G A14U A16U A25U U28C C31U, for which the self-cleavage is 0.04.

C13G G27U G40U U43C: the self-cleavage was determined as 0.02.

As for C13U C15G G40U, the self-cleavage was 0.13.

As to C13G C18A G21C C37A, the self-cleavage was found to be 0.07.

C13U A14C C15A G27A: the self-cleavage is 0.12.

As for C13G A14U G27U U34G, the self-cleavage was 0.03.

As to C13G C15U A16U G21U C45U, the self-cleavage stood at 0.09.

Take C13U A16C A26G: the self-cleavage turned out to be 0.07.

For the variant C13U A14G G22U C31A, the self-cleavage is 0.02.

In the case of C13G A26G C31U C42A, the self-cleavage worked out at 0.05.

With C13U C18A G21U A24U, the self-cleavage was 0.08.

For C13U C18A A41G, the self-cleavage was 0.29.

In the case of C13G G27U U34G, the self-cleavage came to 0.02.

As for C13G C23A G33U U38C, the self-cleavage was determined as 0.07.

C13U G17C C23U: the self-cleavage came to 0.12.

Consider C13G A14U A24C, for which the self-cleavage turned out to be 0.24.

As for C13G C18G U28A, the self-cleavage amounted to 0.03.

As to C13U A14U A26C G36C, the self-cleavage amounted to 0.06.

Take C13U G17A C37G: the self-cleavage amounted to 0.02.

C13G G17U C18U G29C C42A: the self-cleavage was 0.02.

Regarding C13U A14G G22C G33U, the self-cleavage was 0.02.

As for C13G A16G U20C U28A C31G, the self-cleavage was 0.02.

With C13G G29C G30A A39U, the self-cleavage was 0.02.

For C13U G19A C23A A24U G27C G40C U43A, the self-cleavage turned out to be 0.04.

On to C13G A14U A25U U32C, for which the self-cleavage turned out to be 0.07.

As for C13G A41U C42A, the self-cleavage worked out at 0.11.

C13U A14G G22U: the self-cleavage was determined as 0.26.

Consider C13U A14U U32A G35A, for which the self-cleavage was determined as 0.03.

With C13U A26G G40U, the self-cleavage worked out at 0.13.

On to C13U G22A U38G, for which the self-cleavage came to 0.01.

With C13U C31A C42A U43C, the self-cleavage stood at 0.04.

With C13U A26U G29A G40C, the self-cleavage amounted to 0.01.

For C13G G17A C23U G35C, the self-cleavage was found to be 0.33.

In the case of C13U A16G A25G, the self-cleavage was 0.02.

In the case of C13U G21U A25U C31A U32C, the self-cleavage is 0.

Take C13G A14G C37G: the self-cleavage came to 0.

Take C13G C23U G40C: the self-cleavage worked out at 0.01.

Take C13U A16C C31A: the self-cleavage worked out at 0.05.

For C13G G40C C46A, the self-cleavage was 0.07.

In the case of C13G G29U G30A G40C U43A, the self-cleavage is 0.04.

As to C13G C18A G44A, the self-cleavage came out at 0.03.

As for C13G C18G G35U C42A, the self-cleavage came out at 0.02.

Regarding C13G G30U C42A G44U, the self-cleavage was 0.14.

In the case of C13G U20G A25G, the self-cleavage came to 0.15.

Turning to C13G C15A C46A, the self-cleavage is 0.21.

As for C13G A26G G35U, the self-cleavage was 0.23.

Turning to C13G A16G A26G G27U C42A G44U, the self-cleavage came out at 0.01.

With C13U G17A A24G U28A U34A, the self-cleavage turned out to be 0.05.

As for C13U A16C A24C, the self-cleavage was 0.07.

For C13U G21A A39U, the self-cleavage amounted to 0.14.

With C13G C18U U38G, the self-cleavage is 0.02.

For the variant C13G G19U U20G G29C U34A, the self-cleavage is 0.03.

In the case of C13U C31A A39U, the self-cleavage was found to be 0.06.

For the variant C13U A24U G30U G36C, the self-cleavage was 0.42.

Turning to C13U G22C G27A, the self-cleavage was 0.06.

C13U A25G G35U A41G: the self-cleavage was determined as 0.08.

On to C13G A16G C18G, for which the self-cleavage worked out at 0.02.

On to C13U G19C G44A, for which the self-cleavage came out at 0.03.

In the case of C13U A14C G21A G44A, the self-cleavage was determined as 0.05.

Turning to C13G C23A G27U C31G, the self-cleavage amounted to 0.04.

For the variant C13U A16G G44U, the self-cleavage is 0.02.

Regarding C13G A14U A16G G40U C46A, the self-cleavage amounted to 0.02.

For the variant C13U G17A G40U C42A, the self-cleavage is 0.11.

As for C13G C23A A39U G40U, the self-cleavage is 0.11.

C13G A16U A24C: the self-cleavage came to 0.08.

Turning to C13G C15U C18U G22U A26G C46G, the self-cleavage turned out to be 0.02.

With C13G G17A G19C A41C C45U, the self-cleavage turned out to be 0.01.

Consider C13U G17A C31A G33C, for which the self-cleavage is 0.02.

As to C13G C23U G44U, the self-cleavage amounted to 0.03.

Take C13G C37A A39G: the self-cleavage came to 0.02.

On to C13U G19C G29C U34C C37U U38G, for which the self-cleavage worked out at 0.

With C13G A24U G27C C46A, the self-cleavage was 0.33.

Turning to C13U G17U C18G U34A, the self-cleavage is 0.02.

On to C13G G22U C37A, for which the self-cleavage turned out to be 0.45.

As to C13U G17C G19C A26G U34A U43C G44A, the self-cleavage stood at 0.01.

As for C13G C18A G30U, the self-cleavage was found to be 0.03.

Regarding C13U G19A G30A G33C, the self-cleavage is 0.07.

Regarding C13G A24G C31G G40U A41C, the self-cleavage was 0.

Regarding C13G A24C G33A, the self-cleavage amounted to 0.07.

Regarding C13U C15A A16U C18G C37G, the self-cleavage is 0.06.

Consider C13G C15U U32C A39U, for which the self-cleavage stood at 0.05.

On to C13U G17C U20G C42G, for which the self-cleavage stood at 0.01.

Regarding C13U A16U G19A G33U U43C, the self-cleavage came to 0.07.

For C13G A26G A39C, the self-cleavage was determined as 0.06.

Turning to C13G A16C C31U, the self-cleavage came out at 0.04.

As to C13G U34G U38C, the self-cleavage came to 0.02.

Consider C13U G21A C45A, for which the self-cleavage was 0.37.

As to C13U A25U C46A, the self-cleavage was 0.27.

Consider C13U G22A G33U, for which the self-cleavage is 0.14.

On to C13U A16C A24U C42U G44A, for which the self-cleavage is 0.35.

Regarding C13U A39C C42G, the self-cleavage was found to be 0.06.

Turning to C13U A16C G19A U20C A25U G36U C46A, the self-cleavage came out at 0.52.

Regarding C13G G22U G29A, the self-cleavage is 0.32.

With C13G A14U G17A A25G, the self-cleavage came out at 0.17.

Consider C13U C15A G22A U28C G36A A41U, for which the self-cleavage came out at 0.12.

As to C13G A39G C42A, the self-cleavage was 0.08.

In the case of C13G G40U U43G, the self-cleavage worked out at 0.02.

C13G G17C G33C: the self-cleavage turned out to be 0.04.

As to C13G A16G C23A, the self-cleavage worked out at 0.17.

Consider C13U C18A A26C A41C, for which the self-cleavage is 0.01.

C13U C31G U34A: the self-cleavage was 0.09.

Regarding C13G G29U C31A, the self-cleavage turned out to be 0.04.

As to C13U G22C U43G C45A, the self-cleavage came out at 0.02.

As for C13U G22A A26C, the self-cleavage was 0.1.

Consider C13U G19A A24U A39G, for which the self-cleavage amounted to 0.03.

Turning to C13G G21C G35U, the self-cleavage worked out at 1.81.

Regarding C13G G27A G44U, the self-cleavage worked out at 0.08.

With C13U G22U C23A, the self-cleavage is 0.15.

Consider C13U G22U A26C G29A G33U, for which the self-cleavage was 0.06.

With C13U G19C A41U, the self-cleavage is 0.26.

Consider C13U C18A A39U G44C, for which the self-cleavage was found to be 0.02.

In the case of C13G G29U G33C U43G, the self-cleavage amounted to 0.

As for C13U A16G G33U G36A C37A C45A, the self-cleavage turned out to be 0.02.

In the case of C13G G17C G21A, the self-cleavage amounted to 0.02.

For the variant C13G A14U C18A G36C, the self-cleavage was 0.02.

As for C13U C18A C45U, the self-cleavage stood at 0.02.

Turning to C13U A26U A41C, the self-cleavage stood at 0.07.

For C13U G17A C18G U32C, the self-cleavage turned out to be 0.08.

With C13G G19A U38C A39C, the self-cleavage is 0.03.

In the case of C13G A24G G40A C42U C45U, the self-cleavage was 0.02.

Consider C13G G19C U28C U38A, for which the self-cleavage is 0.06.

As for C13G C42A C45A, the self-cleavage was 0.04.

On to C13U G19C A24U G27U, for which the self-cleavage was found to be 0.06.

Turning to C13G A16G G35U, the self-cleavage worked out at 0.05.

In the case of C13U G17C G35C, the self-cleavage turned out to be 0.15.

For C13G C15G U20A G29A C45G, the self-cleavage came to 0.02.

Regarding C13U G19U U20C A25C G44C, the self-cleavage was 0.01.

Turning to C13G U28G C46U, the self-cleavage was 0.03.

For C13U A24G C42A, the self-cleavage turned out to be 0.06.

In the case of C13G G17U G27U C31G G36A, the self-cleavage came to 0.07.

C13G C37U A41G: the self-cleavage stood at 0.03.

C13G A26C G29U: the self-cleavage amounted to 0.07.

With C13U A16G G40A, the self-cleavage was 0.02.

The values above are taken from the RNAGym collection of RNA variant scans (doi:10.7554/elife.90254).
